# Screen size: about 410,000 compounds; about 6,400 (1.6%) were called active. The shares of active, inactive and inconclusive entries below differ from those in the screen. Calls follow the shape of the dose curve; as a rule, active = well fitted inhibition curve with a large enough effect; inconclusive = small, poorly fitted or top-dose-only effect; inactive = no such curve, though single readings can be large or run the other way. Potencies of inconclusive entries are left out as doubtful fits.
# Target: Glucagon-like peptide 1 receptor (Homo sapiens) (UniProt P43220)
# Experiment: qHTS of GLP-1 Receptor Inverse Agonists (Inhibition Mode); also: nearly all actives have a fitted effect of over 55% in size
# Details: HEK293 GLP-1R CRE-luciferase, luminescence, 24 h, GLP-1R form is constitutively active; series mostly up to 38.3 µM
# How it was run: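 Inverse agonism was detected as reduced cAMP-driven luciferase luminescence after 24 h compound treatment. The cells were HEK293 clones expressing constitutively active human GLP-1R with the reporter. Reporter-only and GPR119 cell lines served as counterscreen controls.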
# Potency is read from the fitted curve at half-maximal effect; tags tell the direction and shape of the fitted curve.
# Sequence of UniProt P43220 (P43220 whole entry, looked up): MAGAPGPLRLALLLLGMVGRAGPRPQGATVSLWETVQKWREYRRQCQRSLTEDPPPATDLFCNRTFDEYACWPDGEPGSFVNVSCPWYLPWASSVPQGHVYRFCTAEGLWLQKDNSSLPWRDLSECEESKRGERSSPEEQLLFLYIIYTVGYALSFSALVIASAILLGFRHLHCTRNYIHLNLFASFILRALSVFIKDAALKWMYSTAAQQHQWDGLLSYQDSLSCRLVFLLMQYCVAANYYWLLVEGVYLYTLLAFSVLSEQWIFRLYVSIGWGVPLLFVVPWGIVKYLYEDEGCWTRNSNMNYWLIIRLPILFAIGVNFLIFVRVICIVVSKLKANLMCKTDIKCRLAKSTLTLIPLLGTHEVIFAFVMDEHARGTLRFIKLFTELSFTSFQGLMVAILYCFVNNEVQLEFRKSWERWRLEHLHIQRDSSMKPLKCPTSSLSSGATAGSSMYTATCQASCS
row,SMILES,Potency
1,CCCCc1cc(C(=O)Cc2ccccn2)c(O)cc1O,"inconclusive [inhibitor, partial curve, poor fit]"
2,CC1CCCCC1NC(=O)CSc1nnc(COc2ccc(Cl)cc2)o1 (stereo not given),"inconclusive [inhibitor, single point]"
3,Cc1noc(C)c1COC(=O)C1CCN(C(=O)c2ccc(Cl)cc2)CC1,"inconclusive [inhibitor, single point]"
4,COc1cccc(CN2C(=O)C(C)N(C(=O)c3ccccc3)c3ccccc32)c1 (stereo not given),"inconclusive [inhibitor, partial curve]"
5,CC1CCc2nc(NC(=O)Cc3cccs3)sc2C1 (stereo not given),"inconclusive [inhibitor, single point]"
6,COc1ccc([C@H]2CC(=O)C=C(c3cccc(Br)c3)C2)cc1OC,"inconclusive [inhibitor, single point]"
7,COc1ccccc1-c1ocnc1C(=O)N1CCN(C(=O)C(c2ccccc2)c2ccccc2)CC1,"inconclusive [inhibitor, single point]"
8,Nc1ccc(CSc2ccc(Cl)cc2)c(Cl)c1,"inconclusive [inhibitor, single point]"
9,O=C(Cn1cc(C(=O)c2ccco2)c2ccccc21)Nc1ccccc1,"inconclusive [inhibitor, single point]"
10,O=C(Cn1cccc1C(=O)c1ccccc1)NCCc1ccc(Cl)cc1,"inconclusive [inhibitor, partial curve, poor fit]"
11,Cc1c(C(=O)N2CCOCC2)[nH]c2c1C(=O)CC(c1ccccc1Cl)C2 (stereo not given),"inconclusive [inhibitor, partial curve, poor fit]"
12,CCOc1ccc(NC(=O)c2ccc(F)c(S(=O)(=O)N(Cc3ccc(C(=O)OC)cc3)Cc3ccc(OC)c(OC)c3)c2)cc1,inactive
13,O=C(CSc1ccc(Cl)cc1Cl)N1CCC(c2nc3ccccc3s2)CC1,"inconclusive [inhibitor, partial curve, poor fit]"
14,COc1cccc(N2CC(C(=O)Nc3ccc(C(=O)OC(C)C)cc3)CC2=O)c1 (stereo not given),"inconclusive [inhibitor, partial curve, poor fit]"
15,COc1ccc(Cl)cc1Nc1ccc2cc(S(=O)(=O)N3CCCCC3)ccc2n1,"inconclusive [inhibitor, partial curve, poor fit]"
16,CCOC(=O)N1CCN(S(=O)(=O)c2ccc(C(=O)N(CCCN(C)C)c3nc4c(C)c(C)ccc4s3)cc2)CC1,"inconclusive [inhibitor, partial curve, poor fit]"
17,O=C(NC(C(=O)c1ccccc1)c1ccccc1)c1ccccc1 (stereo not given),"inconclusive [inhibitor, single point]"
18,CC1=C(C(=O)N(C(C)C)C(C)C)CC(CC(=O)NCCCCc2ccccc2)C(=O)N1Cc1ccc(C(C)(C)C)cc1 (stereo not given),"inconclusive [inhibitor, single point]"
19,O=C(NCCN1CCC(n2c(=O)[nH]c3ccccc32)CC1)c1ccc(OC(F)(F)F)cc1,"inconclusive [inhibitor, single point]"
20,CC(C)(C)OC(=O)N1CCCN(C(c2cc3ccccc3o2)c2nnnn2C(C)(C)C)CC1 (stereo not given),"inconclusive [inhibitor, single point]"

row,SMILES,Potency
1,CC(=O)N(c1ccccc1)C(C(=O)c1ccccc1)c1ccccc1 (stereo not given),"inconclusive [inhibitor, single point]"
2,Cc1cc(Nc2nc3ccccc3nc2Cl)n(-c2ccc([N+](=O)[O-])cc2)n1,"inconclusive [inhibitor, single point]"
3,COc1ccc(-n2c(C)c3c(OC)cccc(=O)c3c2C)cc1,"inconclusive [inhibitor, partial curve, poor fit]"
4,CCOC(=O)c1c(O)cc(OC)cc1CCc1ccccc1,"inconclusive [inhibitor, partial curve, poor fit]"
5,C/C(=N/N1CCN(Cc2ccccc2)CC1)c1ccc(Br)cc1,"inconclusive [inhibitor, partial curve, poor fit]"
6,O=C(NCc1cccnc1)c1cc(C2CCCCN2C(=O)CCc2ccccc2)on1 (stereo not given),inactive
7,C=CCC[C@@H](Cc1ccc(F)cc1)C(=O)OC[C@@H](Cc1ccccc1)NC(=O)[C@H](CC=C)CC(=O)NCCO,"inconclusive [inhibitor, single point]"
8,O=C1OCCN1C(=O)[C@H]1[C@H](c2ccc([N+](=O)[O-])cc2)C(c2ccccc2)=NN1c1ccccc1,"inconclusive [inhibitor, single point]"
9,CC(C)N(C(=O)COC(=O)c1ccc(Cl)s1)c1ccccc1,"inconclusive [inhibitor, full curve, poor fit]"
10,COc1ccc2nc(NC(=O)C3CCCN(S(=O)(=O)c4cccc5nonc45)C3)sc2c1 (stereo not given),"inconclusive [inhibitor, single point]"
11,CSC1=NCCN1C(=O)c1cccc(C(F)(F)F)c1,inactive
12,CCOC(=O)c1ccc(NC(=O)N2CC3CCCN3c3ccccc32)cc1 (stereo not given),"inconclusive [inhibitor, single point]"
13,O=C(CN1CCC(n2nnc3cc(F)ccc32)CC1)NCCc1nc2ccccc2[nH]1,inactive
14,CCOC(=O)C1=CN(Cc2ccco2)S(=O)(=O)N(CC)C1c1ccccc1 (stereo not given),"inconclusive [inhibitor, single point]"
15,C=C(C)COc1ccc(-c2[nH]ncc2Oc2ccccc2OCC)c(O)c1,"inconclusive [inhibitor, single point]"
16,O=C(Nc1cccc(Cl)c1)Nc1cccc(Cl)c1,"inconclusive [inhibitor, full curve, poor fit]"
17,CCOC(=O)N1CCN(Cc2nc3cc(NC(=O)c4ccccc4Cl)ccc3n2C(C)C)CC1,"inconclusive [inhibitor, full curve, poor fit]"
18,COc1ccccc1Cc1c(-c2ccc(OC)c(OC)c2)nc2c(C)cc(Br)cn12,"inconclusive [inhibitor, single point]"
19,CCc1ccc(OCC(=O)NNC(=O)c2cc(S(=O)(=O)N(C)C)ccc2N2CCCC2)cc1,inactive
20,CC(=O)N1CCc2c(sc3c2c(=O)n(-c2ccccc2Cl)c(=O)n3Cc2cccc(C)c2)C1,inactive

row,SMILES,Potency
1,Oc1oc(-c2ccccc2)nc1C=Nc1cccc2ccccc12,inactive
2,Cc1cccc(-c2noc(CN(C(=O)/C=C/c3ccccc3Cl)C(C)C)n2)c1,"inconclusive [inhibitor, single point]"
3,Cc1nn(-c2ccc(F)cc2)c(C)c1CN1CCN(Cc2ccccc2)C(CCO)C1 (stereo not given),"inconclusive [inhibitor, partial curve, poor fit]"
4,Cc1ccc(C(=O)N/C(=C/C=C\c2ccccc2)C(=O)NCc2ccco2)cc1,"inconclusive [inhibitor, partial curve, poor fit]"
5,CN1CCC(OC2c3ccccc3CCc3ccccc32)CC1,"inconclusive [inhibitor, single point]"
6,Cc1ccc2oc(C(=O)Nc3ccc(S(=O)(=O)N4CCCCC4C)cc3)cc(=O)c2c1 (stereo not given),inactive
7,CCOC(=O)c1cc(-c2ccccc2)n(CCC(=O)NCCc2ccccc2)c1C,"inconclusive [inhibitor, single point]"
8,CCOC(=O)N1CCN(C(=O)c2cccc(N3C(=O)NC4CC3(C)Oc3ccc(Cl)cc34)c2)CC1 (stereo not given),"inconclusive [inhibitor, partial curve, poor fit]"
9,CCCCCn1c(=O)[nH]c2cc(C(=O)NCCN(CC)CC)ccc2c1=O,"inconclusive [inhibitor, partial curve, poor fit]"
10,CCC(C)N1C(=O)N(c2cccc(Cl)c2)C(C)(O)CC1(C)C (stereo not given),"inconclusive [inhibitor, single point]"
11,O=C(c1ccc(Cl)cc1)N1CCC2CC1c1cc(-c3ccccc3)ccc12 (stereo not given),"inconclusive [inhibitor, single point]"
12,Cc1ccc(C(=O)N[C@H](C(=O)Nc2ccc(F)cc2)C(C)C)cc1,"inconclusive [inhibitor, partial curve, poor fit]"
13,O=C(CSc1nc2ccccc2s1)Nc1cc(S(=O)(=O)N2CCOCC2)ccc1Cl,"inconclusive [inhibitor, single point]"
14,COc1ccc(-c2nc3sc(CCNC(=O)Cc4ccccc4)c(C)n3n2)cc1,inactive
15,CCCCCCCCNCCS(=O)(=O)NCc1ccc(OC)cc1,"inconclusive [inhibitor, single point]"
16,COc1ccc(C2=NS(=O)(=O)N(C)C(C(=O)NC(C)c3ccccc3)=C2)cc1 (stereo not given),"inconclusive [inhibitor, single point]"
17,COc1ccc(C)cc1NC(=O)c1nnn(Cc2cccc(Br)c2)c1N,"inconclusive [inhibitor, full curve, poor fit]"
18,COc1ccccc1CNS(=O)(=O)c1c(C)cc(C)cc1C,"inconclusive [inhibitor, single point]"
19,COc1cc(CNc2ccc(CNc3ncn[nH]3)cc2)ccc1OCC(=O)NC(C)(C)C,"inconclusive [inhibitor, partial curve]"
20,Cc1cc2nc(C(C)(C)C)c(Cc3cccc(F)c3)n2c(C)c1Br,"inconclusive [inhibitor, partial curve, poor fit]"

# Reference: PubChem BioAssay AID624417 (National Center for Advancing Translational Sciences (NCATS), 2012)
